# From the supplement of paper PMC10338343
# ± gives the standard deviation. This is a selection; strong and weak results do not stand in their true shares.
# Test system: MIWI (PIWIL1) piRISC loaded with piRNA #1 (30 nt)
# Test: pre-steady-state target cleavage rate (min^-1); MIWI and MILI are mouse PIWI proteins and EfPiwi is from a freshwater sponge; tags in brackets are library labels; higher = faster piRNA-guided slicing of the target
# Settings: guide: piRNA #1 5'p-UGAGGUAGUAGGUUGUAUAGUAUCCAGAGG; auxiliary factor: 500 nM mouse GTSF1
# Outline: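 The method was Cleave-'n-Seq, in which uncleaved targets from a transcribed, DNA-blocked target RNA library were sequenced after exposure to active affinity-purified piRISC carrying one synthetic guide, with or without GTSF1 partner protein. Reactions contained 0.1 nM library, 1 nM piRISC and, where present, 500 nM GTSF1 in HEPES–potassium acetate buffer at 33 °C for 0–8 or 0–960 min. Reads were normalised to depth and to weakly complementary targets, three trials were pooled, and k3 was capped at 0.0001 min^-1. The pre-steady-state cleavage rate came from a burst-and-steady-state fit.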
row,Sequence,pre-steady-state target cleavage rate
1,GGAGACCUUACUAUACAACCAACUACCACA,0.0729 ± 0.0098
2,GGAGACCUUACUAUACAACCUAGUUCCUCA,0.0816 ± 0.014
3,GGAGACCUAACUAAACAAGCUACUACCUCA,0.115 ± 0.025
4,GGAGACCUUAAUAUACAACCUACUACCUCA,0.181 ± 0.02
5,GGAGACCUUAGCUAUACAACCUACUACCUCA,1.06 ± 0.096
6,GGAGUGCAUUCUAUACAACCUACUACCUCA,1.32 ± 0.11
7,GGAGUGGUUACUAUACAACCUACUUCCUCA,0.0202 ± 0.0058
8,GGAGUGGUUACUAUACAUCCUACUACCUCA,1.43 ± 0.099
9,GGUGUGGAUACUAUACUACCUACUACCUCA,1.33 ± 0.09
10,GGAGACCUUACUAUACACCUACUACCUCA,0.00373 ± 0.0025
11,GGAGACGAUACUAUAGAACCAACUACCUCA,0.0639 ± 0.0077
12,GGAGACCAUACUGUACAACCUACUACCUCA,0.439 ± 0.034
13,GGAGACCUAUCUAUACAACCUCACUACCUCA,0.00372 ± 0.0034
14,GGAGACCUAACUUUACAACCUUCUACCUCA,0.0831 ± 0.027
15,GCUCUGGUUACUAUACAACCUAGUACCUCA,0.6 ± 0.07
16,GGAGACCUAUGAAUUCAACCUAGUACCUCA,< 0.0001
17,GGUCUCGAUACUAUACAAGCUACUACCUCA,1.11 ± 0.052
18,GGUCUGGAUACUAUACAACCUACUAACCUCA,0.939 ± 0.073
19,GGUCUGGAUCUAUACAACCUACUACCUCA,1.62 ± 0.1
20,GGAGACCAUACUAUACAACCUACUAUCCUCA,1.47 ± 0.075
21,GCUCUGCAUACUAUACAACGUACUACCUCA,1.21 ± 0.066
22,GGAGACCUUACUUACAACCUACUACCUCA,0.138 ± 0.015
23,GGAGACCUAACUAUACAACCUACUCCCUCA,0.463 ± 0.06
24,GGAGACCUUGCUAUACAACCUACUACCUCA,1.36 ± 0.15

row,Sequence,pre-steady-state target cleavage rate
1,GGUCUGGAUACUAUACAACCUACAUCCUCA,0.0497 ± 0.0096
2,GGACAGGAUUCUAUACAACCUACUACCUCA,1.56 ± 0.097
3,GGAGACGAUAGAAUACAACCUACUACCUCA,0.216 ± 0.032
4,GGAGUGGUUACAAUACAACCUACUACCUCA,1.2 ± 0.079
5,GGAGUGGAUACUAAUGAACCUACUACCUCA,0.257 ± 0.044
6,GGAGUGGAUACUAUACAACCAUCUACCUCA,0.0428 ± 0.0099
7,CCUCUGGAUACUAUACAACCUGCUACCUCA,0.768 ± 0.04
8,GGAGACCAUACUUUAGAACCUACUACCUCA,0.678 ± 0.052
9,GGAGUGGAUACUAUGACAACCUACUACCUCA,1.48 ± 0.12
10,CCUCUGGAUACUAUACAACCUACUACGUGA,1.06 ± 0.13
11,GGAGACCUAACUAUACAACCAACUACCUGA,0.00607 ± 0.0034
12,GGAGACGAUACUAUACAACCUAGUACCACA,0.209 ± 0.065
13,GGUCUGGAUACUAUACAACCUAGUACGUCA,0.00588 ± 0.003
14,GGAGAGGAUACUAUACAACCUACUACGUCA,0.432 ± 0.031
15,GGAGACCUAUCUAUAGAACCUACUACCUCA,0.599 ± 0.06
16,GGACUGGAUUCUAUACAACCAACUACCUCA,0.106 ± 0.011
17,GGAGACCAUUCAAUACAACCUACUACCUCA,0.243 ± 0.048
18,GGACUGGAUUCAAUACAACCUACUACCUCA,1.13 ± 0.12
19,GGAGAGCAAACUAUACAACCUACUACCUCA,1.21 ± 0.091
20,GGAGACCUAUCUUUACAACCUUCUACCUCA,0.0144 ± 0.0044
21,CCUCUGGAUACUUUACAACCUACUACCACA,1.54 ± 0.12
22,GGAGACCUAUCUAUACAACCUACUAGCUGA,0.0288 ± 0.0089
23,GGAGACCUAUCUAUACAACCUACUAACCUCA,0.7 ± 0.056
24,GGAGAGGAUAGUAUUCAACCUACUACCUCA,0.19 ± 0.031

row,Sequence,pre-steady-state target cleavage rate
1,GGAGACCAUACUAUACAACCUACUACCUAA,1.41 ± 0.088
2,GGAGACCUAUGAUAACUAACCUACUACCUCA,< 0.0001
3,GGUCUGCAUACUAUACAACCUACUACCACA,0.7 ± 0.07
4,GGAGUGGAUAUAUACAACCUACUACCUCA,1.28 ± 0.072
5,GGAGACGAUACUAUACAAGCUACUACGUCA,0.877 ± 0.095
6,CCUGUGGAUACUAUACAACCUACUUCCUCA,0.0178 ± 0.006
7,GCUCUGGAUACUAAUCAACCUACUACCUCA,1.33 ± 0.082
8,GGACUGGAUACUAAACAACCUACUACCACA,0.639 ± 0.063
9,GCUGUGGAUACUAUACAACCUAGUACCUCA,0.439 ± 0.068
10,GGAGAGGAUACAUUACAACCUACUACCUCA,1.1 ± 0.07
11,GGAGUGGAUACUAUACAACCAACUUCCUCA,0.0088 ± 0.0024
12,GGACUGGAUACUAAACAUCCUACUACCUCA,1.4 ± 0.14
13,GGAGACCUAACUAUACAACCUACUACCGCA,1.04 ± 0.078
14,GGAGUGGAUACUAUACAACCUACUACCAGA,0.0592 ± 0.013
15,GGAGAGGAUACUUAUCAACCUACUACCUCA,0.62 ± 0.068
16,GGAGACCUAUGAUAAAAACCUACUACCUCA,< 0.0001
17,GGAGUGGAUACUAUACAACCUACAUGCUCA,0.00675 ± 0.0024
18,GGAGUGGCUACUAUACAACCUACUACCUCA,1.58 ± 0.076
19,GGAGACCAUACUAUACAACAUACUACCUCA,0.939 ± 0.06
20,GGUCUGGUUACAAUACAACCUACUACCUCA,1.59 ± 0.12
21,GGAGUGGAUACUAAACUACCUACUACCUCA,0.827 ± 0.064
22,GGAGUGCAUACUAUAGAACCUACUACCUCA,1.23 ± 0.075
23,GGAGUGGAUACUAUACUACCUACUUCCUCA,0.071 ± 0.012
24,GGAGUCGAUACUAUACAACCUACUAGCUCA,0.139 ± 0.029

row,Sequence,pre-steady-state target cleavage rate
1,GGACUGGAUACUAUACAACCUGCUACCUCA,0.952 ± 0.063
2,GGAGACCUAACUAUACAACCUACAUACCUCA,0.315 ± 0.034
3,GCUCUGGAUACAUUACAACCUACUACCUCA,1.43 ± 0.1
4,GGAGUGGAUACUAUAGAACCAACUACCUCA,0.049 ± 0.0053
5,GGAGACCUUACUAUACAACCUACCACCUCA,0.847 ± 0.06
6,GGACUGGAUACUAUAGAACCUUCUACCUCA,0.0567 ± 0.011
7,GGAGACCAUACUAUACAUGGUACUACCUCA,0.00737 ± 0.0025
8,GGAGUGGAUACUAUACAUGCUACUACCUCA,0.691 ± 0.042
9,GGUCUGGCUACUAUACAACCUACUACCUCA,1.99 ± 0.11
10,GGACUGGAUACUAAACAACCUUCUACCUCA,0.641 ± 0.043
11,GGAGACCUAACUAUACAACCUAACUACCUCA,0.00844 ± 0.0024
12,CCUCUCGAUACUAUUCAACCUACUACCUCA,2.27 ± 0.15
13,GGAGACCUAUGAUAUGUUCCUUCUACCACA,< 0.0001
14,GGAGACCAUACUAUACUACCUACUACCUCA,0.923 ± 0.071
15,GGAGACCUAACUAUACAACCAACUACCUCA,0.0156 ± 0.0076
16,GGAGACCAUACUAUAGUACCUACUACCUCA,0.423 ± 0.064
17,GCUCUGGAUACUAUACAACCAUGUACCUCA,0.00914 ± 0.0029
18,GGAGACCAUACUAUACCACCUACUACCUCA,1.28 ± 0.095
19,GCUCUGGAUACUUUACAUCCUACUACCUCA,1.54 ± 0.096
20,GGAGUGGAUUCUAUACAAGCUACUACCUCA,1.08 ± 0.06
21,GGAGUGGAUACUAUACAACUUACUACCUCA,0.525 ± 0.021
22,GGAGACGAUACUAUACAACCUUGUACCUCA,0.083 ± 0.013
23,GGACUGGAUACAUAACAACCUACUACCUCA,0.634 ± 0.11
24,GGAGACCUAUCUAUACAACCUACUUGGAGA [g7:g20:cont:t1A],0.0168 ± 0.0052

row,Sequence,pre-steady-state target cleavage rate
1,GGACUGGAUACUUUUCAACCUACUACCUCA,1.19 ± 0.1
2,GGAGAGGAUACUAUACAACCAAGUACCUCA,0.0212 ± 0.0052
3,GGACUGGAUACUAUAGAACCUAGUACCUCA,0.00611 ± 0.0028
4,GGAGAGGAUACUAUACAACCUACUACGCUCA,0.56 ± 0.038
5,GGAGACCUUACUAUCCAACCUACUACCUCA,1.44 ± 0.086
6,GCUCUGGAUACUAUACAACCUACAACCUCA,1.38 ± 0.087
7,GGACUGCAUACUAUACAACCUACUACGUCA,0.49 ± 0.053
8,GGAGACCUAACUAUACUAACCUACUACCUCA,< 0.0001
9,GGAGACCUUACUAUACAACCUUCAACCUCA,0.142 ± 0.022
10,GGAGACCAUACUAUAGAACCUACUACCUCA,0.618 ± 0.05
11,CCUCUGGAUACUAUACAACCUACUACUCA,1.76 ± 0.15
12,GGAGACCUAACUAUAGAACCUACUACCACA,0.185 ± 0.038
13,GGAGUGGAUACUAUACAACGUACUACCUCA,0.589 ± 0.031
14,GGACUGGAUACAAUACAACCUACUUCCUCA,0.0269 ± 0.006
15,GGAGACCUUACUAUACAAUCUACUACCUCA,0.358 ± 0.021
16,GGAGACCAAACUAAACAACCUACUACCUCA,0.438 ± 0.081
17,GGAGAGGAUACUAUACAACCUACUACCCA,0.26 ± 0.034
18,CCUCUGGAUUCUAUACAACCUACUACCUCA,1.63 ± 0.095
19,GGUCUGGAUACUAUACAACCUACUACGUCA,0.654 ± 0.062
20,CCUCUGGAUACUAUACAAUCUACUACCUCA,0.592 ± 0.026
21,GGUCUGGAUACUAAACAACCUACAACCUCA,0.501 ± 0.049
22,GGAGUGGAAACUAUUCAACCUACUACCUCA,1.3 ± 0.085
23,GGACUGGAUACUAUACAACCUACUACCUGA,0.57 ± 0.12
24,GGAGACGAUACUAUAAAACCUACUACCUCA,1.58 ± 0.092
